In the supplement of paper PMC9446081 one finds relative growth data, which are given here for 61 molecules.

In all, about 39,000 compounds went through this assay and about 220 (0.56%) showed activity. The list shows a part of the results.
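Note: static incubation at 37 °C against the wild-type strain, values averaged over two biological replicates.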

This test concerns Escherichia coli K-12 BW25113. Description: relative growth (OD600 normalised to plate interquartile mean) (fraction); higher = less growth inhibition, active = 0.2 or less. Conditions: 50 µM; LB; incubation time: overnight (16-24 h).
Consider `C[C@H](CO)N1C[C@H](C)[C@@H](CN(C)S(C)(=O)=O)Oc2cc(-c3ccc(F)cc3)ccc2S1(=O)=O`, for which the relative growth was inactive: 1.01.

In the case of `C[C@H](CO)N1C[C@H](C)[C@@H](CN(C)S(=O)(=O)c2cn(C)cn2)Oc2ccc(NS(=O)(=O)c3cccs3)cc2C1=O`, the relative growth is inactive: 0.999. The figure for `COc1ccc([Si](C)(C)[C@@H]2[C@@H](CC(=O)N3Cc4ccccc4C[C@H]3CO)O[C@]3(C(=O)N(Cc4ccc(N5CCC5=O)cc4)c4ccccc43)[C@H]2C)cc1` is inactive: 0.907; for `COCC(=O)N1[C@H](C(=O)NCc2ccccc2)[C@@H](CO)[C@@H]2Cn3c(cccc3=O)[C@@H]21` it is inactive: 1.03; for `O=C(C[C@@H]1CC=CCCC(=O)OCCNC1=O)NCCO` it is inactive: 1.02.

In the case of `COc1ccc(-c2coc3cc(OC)ccc3c2=O)c(O)c1`, the relative growth is inactive: 0.904. As to `C[C@H]1CN([C@@H](C)CO)C(=O)c2cc(NC(=O)CCCCCC(=O)Nc3ccccc3N)ccc2O[C@H]1CN(C)CC1CCCCC1`, the relative growth was inactive: 0.97.

Turning to `CN(C)C(=O)[C@H]1[C@H](CO)[C@H]2Cn3c(ccc(C4=CCCC4)c3=O)[C@@H]1N2S(=O)(=O)c1cn(C)cn1`, the relative growth was inactive: 1.01. Next, `C[C@@H]1CN([C@@H](C)CO)C(=O)Cc2cc(NC(=O)Nc3ccc(F)cc3)ccc2O[C@H]1CN(C)Cc1ccc(C(=O)Nc2ccccc2N)cc1`: inactive: 1.01; `COCC(=O)Nc1ccc2c(c1)OC[C@H](C)N(Cc1cccc(F)c1)C[C@H](C)[C@@H](OC)CN(C)C2=O`: inactive: 0.973; `C[C@H](CO)N1C[C@H](C)[C@H](CN(C)S(=O)(=O)c2ccc(F)cc2)Oc2ncc(C#CC3(O)CCCC3)cc2C1=O`: inactive: 0.995. Next, `CC1=CC(=O)N(c2ccn(C)n2)C1=O`: inactive: 0.987. For `C[C@H](CO)N1C[C@H](C)[C@H](CN(C)C(=O)c2ccccc2)OCCCC[C@H](C)Oc2ccc(NC(=O)CCC(F)(F)F)cc2C1=O`, the relative growth was inactive: 0.994. The figure for `C[C@@H]1CN([C@H](C)CO)C(=O)Cc2cc(NC(=O)Cn3cnnn3)ccc2O[C@@H]1CN(C)C(=O)Nc1ccc(F)cc1` is inactive: 0.989; for `C[C@H](CO)N1C[C@H](C)[C@@H](CN(C)C(=O)NC2CCCCC2)Oc2ccc(NC(=O)CCN3CCOCC3)cc2CC1=O` it is inactive: 0.985; for `COCC#Cc1cnc2c(c1)C(=O)N([C@@H](C)CO)C[C@@H](C)[C@@H](CN(C)C(=O)CCN1CCCCC1)O2` it is inactive: 0.999. The figure for `C[C@H](CO)N1C[C@H](C)[C@H](CN(C)S(=O)(=O)c2cccc(C#N)c2)OCc2cn(nn2)CCCC1=O` is inactive: 0.983. Next, `Cc1noc(C)c1NC(=O)Nc1ccc2c(c1)C(=O)N([C@@H](C)CO)C[C@H](C)[C@@H](CN(C)Cc1ccncc1)OCCCC[C@H](C)O2`: inactive: 1.01; `COc1ccc(S(=O)(=O)N(C)C[C@@H]2Oc3c(NC(=O)c4cc(C)nn4C)cccc3C(=O)N([C@@H](C)CO)C[C@H]2C)cc1`: inactive: 1.03; `Cc1noc(C)c1NC(=O)N(C)C[C@H]1Oc2ccc(NS(C)(=O)=O)cc2C(=O)N([C@@H](C)CO)C[C@@H]1C`: inactive: 1.01. Turning to `C[C@@H]1CCCCO[C@@H](CN(C)Cc2ccc(Cl)c(Cl)c2)[C@@H](C)CN([C@H](C)CO)C(=O)c2cc(NC(=O)Nc3ccc(C(F)(F)F)cc3)ccc2O1`, the relative growth was inactive: 0.996. Consider `Cc1ccc(S(=O)(=O)N(C)C[C@H]2Oc3ncc(C#CC4(O)CCCC4)cc3C(=O)N([C@@H](C)CO)C[C@@H]2C)cc1`, for which the relative growth was inactive: 1.01. Next, `C=c1ccc(S(=O)(=O)NC[C@@H](C)O)cc1=C1NN=C2c3ccccc3C(C)=NN21`: inactive: 0.987.

In the case of `COc1ccccc1S(=O)(=O)N(C)C[C@H]1Oc2cc(C#CCC(C)C)ccc2S(=O)(=O)N([C@H](C)CO)C[C@@H]1C`, the relative growth was inactive: 0.994. Next, `CC(C)NC(=O)N(C)C[C@H]1Oc2ccc(NS(=O)(=O)c3ccc(F)cc3)cc2CC(=O)N([C@@H](C)CO)C[C@@H]1C`: inactive: 1.01; `C[C@@H]1CN([C@@H](C)CO)C(=O)c2cc(C#Cc3ccc(F)cc3)cnc2O[C@H]1CN(C)CC1CCOCC1`: inactive: 0.991. Next, `COc1ccc(NC(=O)N(C)C[C@@H]2OCCCC[C@H](C)Oc3ccc(NC(=O)Cc4ccccc4)cc3C(=O)N([C@H](C)CO)C[C@@H]2C)cc1`: inactive: 0.983; `COc1ccc(C2CC(=O)c3c(O)cc(O)cc3O2)cc1O` (stereo unspecified): inactive: 1.03; `COC[C@@H]1CN(C)C(=O)[C@H]2CCN(S(=O)(=O)N(C)C)CC[C@@H]12`: inactive: 1.02.

For the molecule `CC(C)(C)[S@@](=O)N1Cc2cc(C(=O)NCc3ccc4c(c3)OCO4)nc(-c3cccc(-c4ccncc4)c3)c2[C@H]1CCO`, the relative growth is inactive: 1.04. Next, `CC(=O)c1cc2c(cc1O)OC(C)(C)C=C2`: inactive: 0.946. The figure for `O=C(C[C@H]1C[C@@H]2c3cc(NC(=O)Nc4ccc(C(F)(F)F)cc4)ccc3O[C@@H]2[C@H](CO)O1)NCc1cc(F)ccc1F` is inactive: 1.02; for `O=C(C[C@@H]1C[C@H]2c3cc(NS(=O)(=O)c4ccc(F)cc4)ccc3O[C@H]2[C@@H](CO)O1)NC1CCCCC1` it is inactive: 0.997; for `CO[C@@H]1CN(C)C(=O)c2ccc(NC(=O)Nc3cccc(F)c3)cc2OC[C@H](C)N(C(=O)Nc2c(C)noc2C)C[C@H]1C` it is inactive: 0.964.

Regarding `C[C@@H]1CCCCO[C@@H](CN(C)C(=O)c2ccncc2)[C@@H](C)CN([C@H](C)CO)C(=O)c2cc(NS(C)(=O)=O)ccc2O1`, the relative growth is inactive: 1. Next, `C[C@@H]1CN([C@@H](C)CO)C(=O)c2cc(C3=CCCC3)cnc2O[C@@H]1CN(C)S(=O)(=O)c1cn(C)cn1`: inactive: 0.966.

Turning to `C[C@@H]1CN([C@@H](C)CO)C(=O)c2cccc(NS(=O)(=O)c3cccs3)c2O[C@@H]1CN(C)C(=O)Nc1cccc2ccccc12`, the relative growth is inactive: 0.988. The figure for `C[C@H]1CN([C@@H](C)CO)C(=O)Cc2cc(NC(=O)Cc3cn(C)c4ccccc34)ccc2O[C@H]1CN(C)Cc1ccc(C(=O)Nc2ccccc2N)cc1` is inactive: 1.03; for `Cc1noc(C)c1NC(=O)Nc1ccc2c(c1)C(=O)N([C@@H](C)CO)C[C@@H](C)[C@H](CN(C)C(=O)C1CCCCC1)OCCCC[C@@H](C)O2` it is inactive: 1; for `COc1ccc2c3c(n(c2c1)C)[C@@H](CO)N(C[C@]13CCN(CC1)C(=O)CC1CC1)C(=O)CN1CCOCC1` it is inactive: 0.934.

In the case of `C[C@@H]1C(=O)O[C@@H]2C[C@@](C)(O)[C@H]3C[C@H]4O[C@@]4(C)[C@@]3(O)C(=O)[C@@H]12`, the relative growth was inactive: 1.02. The figure for `C[C@@H]1CN([C@H](C)CO)C(=O)Cc2cc(NC(=O)CCN3CCOCC3)ccc2O[C@H]1CN(C)CC1CC1` is inactive: 1.03; for `O=C(NCCN1CCOCC1)[C@]1(CCS(=O)(=O)c2ccccc2)N=C(c2ccc(OCCCO)cc2)O[C@@H]1c1ccccc1` it is inactive: 1. For the molecule `O=C(Cc1ccsc1)N(Cc1ccc2c(c1)OCO2)Cc1cc2cc3c(cc2nc1N1CCOCC1)CCC3`, the relative growth is inactive: 1.03. Next, `O=C(C[C@@H]1CC[C@@H]2[C@H](COC[C@H](O)CN2S(=O)(=O)c2ccc(Cl)cc2)O1)NCCN1CCCCC1`: inactive: 0.997; `COc1ccc(CN(C)C[C@H]2OCCCC[C@H](C)Oc3ccc(NC(=O)Cc4ccccc4)cc3C(=O)N([C@H](C)CO)C[C@@H]2C)cc1`: inactive: 1.01; `N[C@H]1CC[C@H](CCn2cc(C3CC3)nn2)O[C@@H]1CO`: inactive: 0.888. The figure for `C[C@H]1CN([C@@H](C)CO)S(=O)(=O)c2ccc(Br)cc2O[C@H]1CN(C)C(=O)Cc1ccccc1` is inactive: 1; for `Cc1nsc(-c2ccccc2)n1` it is inactive: 0.987. The figure for `CN(C)C(=O)C[C@H]1C=C[C@@H](NC(=O)C2CCOCC2)[C@H](CO)O1` is inactive: 0.993. With `COc1ccc(NC(=O)Nc2ccc3c(c2)C(=O)N([C@H](C)CO)C[C@H](C)[C@@H](CN(C)CC2CC2)OCCCC[C@H](C)O3)cc1`, the relative growth is inactive: 0.998. In the case of `COc1cccc(C#Cc2cnc3c(c2)C(=O)N([C@H](C)CO)C[C@@H](C)[C@H](CN(C)C(=O)C2CCOCC2)O3)c1`, the relative growth was inactive: 1.03. Next, `CC(C)C#Cc1cnc2c(c1)C(=O)N([C@@H](C)CO)C[C@H](C)[C@H](CN(C)S(=O)(=O)c1cn(C)cn1)O2`: inactive: 0.987; `COc1ccc(-c2cnc3c(c2)C(=O)N([C@H](C)CO)C[C@H](C)[C@H](CN(C)C(=O)Cc2ccncc2)O3)cc1`: inactive: 0.977.

In the case of `CC1(C)C=Cc2c(nc3ccccc3c2NCc2ccccc2)C1`, the relative growth was inactive: 0.489.

Take `O=C(C[C@@H]1CC[C@@H]2[C@H](COC[C@@H](O)CN2S(=O)(=O)c2ccccc2F)O1)NCc1ccccc1Cl`: the relative growth was inactive: 0.992. `O=C(CCCCCCC(=O)N/N=C/[C@H](O)[C@@H](O)[C@H](O[C@@H]1O[C@H](CO)[C@H](O)[C@H](O)[C@H]1O)[C@H](O)CO)NO`: the relative growth was inactive: 1. The figure for `CCOC(=O)c1c(CN2CCN(CCOCCO)CC2)n(-c2ccccc2)c2cc(Br)c(O)cc12` is inactive: 1.04. The figure for `C[C@@H]1CN([C@H](C)CO)C(=O)Cc2cc(NS(C)(=O)=O)ccc2O[C@@H]1CN(C)S(=O)(=O)c1ccc(Cl)cc1` is inactive: 0.985.

As to `C[C@H]1CCCCO[C@@H](CN(C)C(=O)Nc2ccc(C(F)(F)F)cc2)[C@@H](C)CN([C@@H](C)CO)C(=O)c2cc(NC(=O)Nc3ccc(F)cc3)ccc2O1`, the relative growth was inactive: 1.01.

As for `C[C@H]1CN([C@@H](C)CO)C(=O)c2cc(NS(=O)(=O)c3ccc(Cl)cc3)ccc2O[C@H]1CN(C)C(=O)Nc1cccc2ccccc12`, the relative growth was inactive: 0.99.
